Laboratory results from the supplement of paper PMC3334620.
The full ranking holds about 33,000 sequences; the median of “E-score (-0.5 to 0.5)” is about -0.056, and the highest 2% start at about 0.38. The list shows a part of the results.

What follows are sequences tested against Stb4 (UniProt P50104) (assay: PBM E-score (8-mer binding enrichment) (E-score (-0.5 to 0.5)); higher = stronger / more preferred TF binding; most listed sequences are background and not binding sites). Conditions: protein concentration: 200 nM; construct: GST-DNA-binding domain.
In short: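 Masliner-normalised scans of fluorescent anti-GST signal were the basis for scoring. That signal came from GST-tagged yeast transcription factors applied at about 100-200 nM to double-stranded universal all-10-mer Agilent arrays on fresh or once-stripped slides. Each ungapped eight-base word, pooled with its reverse complement, received an E-score from the Universal PBM Analysis Suite.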
With CACACTCA the “PBM E-score” value was -0.126.
AGCCTCCC was tested, and the “PBM E-score” value was -0.112.
With ATACACTA the “PBM E-score” value was -0.184.
With ACACAAAG the “PBM E-score” value was -0.11.
For CCGCACAC, the “PBM E-score” value was 0.0462.
CAAATCAA was tested, and the “PBM E-score” value was -0.202.
CAAGTATG was tested, and the “PBM E-score” value was -0.31.
In the case of TCGAGCGA, the “PBM E-score” value is reported as -0.205.
With CCTGATTA the “PBM E-score” value was -0.0882.
For AGATCGGA, the “PBM E-score” value was 0.438.
In the case of ACAGTACA, the “PBM E-score” value is reported as -0.0304.
With AATTGTCC the “PBM E-score” value was 0.0336.
In the case of CAGATATA, the “PBM E-score” value is reported as -0.181.
In the case of CACGCTCC, the “PBM E-score” value is reported as -0.0234.
For CGAATCCG, the “PBM E-score” value was 0.354.
For AGCCTTTC, the “PBM E-score” value was -0.0737.
In the case of GAAGTCAA, the “PBM E-score” value is reported as -0.084.
In the case of ATTCAACA, the “PBM E-score” value is reported as -0.0716.
With AATCCTTA the “PBM E-score” value was -0.0563.
CCTTTAAC was tested, and the “PBM E-score” value was 0.118.
For CCCCCCCG, the “PBM E-score” value was -0.164.
ATTCGCGA was tested, and the “PBM E-score” value was -0.154.
In the case of ATAGTCAT, the “PBM E-score” value is reported as -0.027.
For AAAAGCCT, the “PBM E-score” value was -0.257.
CGCCGGCA was tested, and the “PBM E-score” value was 0.261.
In the case of CAAAGGCC, the “PBM E-score” value is reported as -0.0914.
In the case of ACGGGCCA, the “PBM E-score” value is reported as 0.015.
With GACTGTGC the “PBM E-score” value was -0.166.
For CCCCTGCG, the “PBM E-score” value was -0.165.
With CCGACCCA the “PBM E-score” value was 0.32.
CTTGAGGC was tested, and the “PBM E-score” value was -0.17.
AACAGTAC was tested, and the “PBM E-score” value was -0.0138.
ACGCTGGC was tested, and the “PBM E-score” value was -0.131.
In the case of AAGTACGC, the “PBM E-score” value is reported as -0.164.
ATTGTACA was tested, and the “PBM E-score” value was -0.0234.
For TTATGCAA, the “PBM E-score” value was -0.214.
ACTGAACG was tested, and the “PBM E-score” value was -0.259.
GTGACAGA was tested, and the “PBM E-score” value was -0.0746.
In the case of AGACAGTG, the “PBM E-score” value is reported as -0.106.
For AGAATTCT, the “PBM E-score” value was 0.0793.
For CCTGTCGC, the “PBM E-score” value was -0.121.
In the case of ATGTCTGG, the “PBM E-score” value is reported as 0.0541.
In the case of AGGGAATG, the “PBM E-score” value is reported as -0.118.
With AGACTTTA the “PBM E-score” value was -0.186.
With AGCACAGA the “PBM E-score” value was -0.121.
With GAAATCTA the “PBM E-score” value was 0.0604.
GAATAGCA was tested, and the “PBM E-score” value was -0.207.
For GTAGTTTA, the “PBM E-score” value was 0.0229.
For CCTTTTTC, the “PBM E-score” value was 0.0967.
In the case of GAAACGAC, the “PBM E-score” value is reported as -0.0855.
In the case of ACCCCGTA, the “PBM E-score” value is reported as -0.0633.
AAAAAAAC was tested, and the “PBM E-score” value was 0.0136.
For ACCTAACA, the “PBM E-score” value was 0.00411.
For CAAGGACG, the “PBM E-score” value was -0.191.
ACTTGAGG was tested, and the “PBM E-score” value was -0.153.
GCTGCACA was tested, and the “PBM E-score” value was -0.125.
With CAAGCGGG the “PBM E-score” value was 0.0934.
In the case of AACTACTT, the “PBM E-score” value is reported as -0.0554.
In the case of GGGGTCAC, the “PBM E-score” value is reported as 0.0106.
In the case of AGAGGAGA, the “PBM E-score” value is reported as -0.198.
In the case of CAACGAAC, the “PBM E-score” value is reported as -0.158.
With AGAAATTA the “PBM E-score” value was 0.0316.
With CTGCCGGC the “PBM E-score” value was 0.281.
With GTGGAACA the “PBM E-score” value was -0.0512.
In the case of CTACCTAC, the “PBM E-score” value is reported as 0.0142.
In the case of CACAGGTA, the “PBM E-score” value is reported as -0.126.
For ACCCTTCA, the “PBM E-score” value was -0.108.
With CCTTATAG the “PBM E-score” value was -0.26.
CCATATCG was tested, and the “PBM E-score” value was 0.0884.
For ACTAAGCC, the “PBM E-score” value was 0.0762.
In the case of TAGATTGA, the “PBM E-score” value is reported as 0.159.
GAAACAGA was tested, and the “PBM E-score” value was -0.0644.
For TACCCACA, the “PBM E-score” value was -0.0436.
TCTCCCCA was tested, and the “PBM E-score” value was -0.0746.
CAATAACC was tested, and the “PBM E-score” value was 0.182.
For ATGCCGGA, the “PBM E-score” value was 0.366.
TAAGGGTA was tested, and the “PBM E-score” value was -0.235.
In the case of GGCCGGTA, the “PBM E-score” value is reported as 0.18.
With CCGGCTCA the “PBM E-score” value was 0.247.
ATGCCGAG was tested, and the “PBM E-score” value was 0.423.
ATGCAATC was tested, and the “PBM E-score” value was -0.0379.
ATTCCAAT was tested, and the “PBM E-score” value was -0.192.
In the case of AAGGCGCG, the “PBM E-score” value is reported as -0.203.
For CACACGAA, the “PBM E-score” value was -0.195.
With CTTCTTTA the “PBM E-score” value was -0.0675.
In the case of AAACCCGC, the “PBM E-score” value is reported as 0.246.
With ATGGACTA the “PBM E-score” value was -0.197.
For CGTATGAA, the “PBM E-score” value was 0.0196.
In the case of ACAGACTA, the “PBM E-score” value is reported as -0.124.
ACCAGAAG was tested, and the “PBM E-score” value was -0.213.
With TGGTTACA the “PBM E-score” value was -0.164.
ATACCTTC was tested, and the “PBM E-score” value was -0.103.
With CAGGCCGC the “PBM E-score” value was -0.0516.
In the case of GTAAATTA, the “PBM E-score” value is reported as -0.0172.
ACCTTCAG was tested, and the “PBM E-score” value was -0.168.
In the case of ATCTTCAG, the “PBM E-score” value is reported as -0.00891.
In the case of GTGTGGCA, the “PBM E-score” value is reported as -0.0783.
ATTTCCGG was tested, and the “PBM E-score” value was 0.426.
AAATTGGT was tested, and the “PBM E-score” value was 0.0302.
For ACGTGGGC, the “PBM E-score” value was -0.277.
For GCAGGCTA, the “PBM E-score” value was -0.102.
In the case of CTGCCGGA, the “PBM E-score” value is reported as 0.343.
CACCTTGG was tested, and the “PBM E-score” value was -0.0774.
For ATGGCTTC, the “PBM E-score” value was -0.161.
ACTGAGAC was tested, and the “PBM E-score” value was -0.283.
For ATTACGCC, the “PBM E-score” value was -0.07.
With CGGGTGGA the “PBM E-score” value was 0.256.
For TCGGTTAA, the “PBM E-score” value was 0.44.
For AAATATCC, the “PBM E-score” value was 0.305.
